Laboratory results: PubChem BioAssay AID1963576 (National Center for Advancing Translational Sciences (NCATS), 2024)
The whole screen tested about 46,000 compounds, of which about 60 (0.1%) were called active. About 3% were inconclusive and are not listed. Calls come from the whole dose curve; as a rule, active = well fitted inhibition curve with a large enough effect; inconclusive = small, poorly fitted or top-dose-only effect; inactive = no such curve, though single readings can be large or run the other way. This is one part of the list.

Assay: Primary qHTS assay for Inhibitors of ovarian cancer metastasis using an organotypic tumor microenvironment (TME) model.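 For activity change, negative = inhibition: plate controls were DMSO wells for no effect and tomatine positive control wells for full effect.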 Note: nearly all actives have a fitted effect of over 65% in size.
Conditions: SKOV3ip1-GFP adhesion/invasion on 3D omental model, fluorescence; series mostly up to 45.8 µM; activity change, negative = inhibition: at the top concentration
How it was run: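 Primary human omental fibroblast/mesothelial 3D culture pre-formed 48 h. SKOV3ip1-GFP cells added with compounds (0.36-46 umol/L), incubated 2 h RT/16 h 37 C, fixed; GFP cells quantified at 488/509 nm.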

Activity change, negative = inhibition, inactive:
CCOC(=O)c1ccc(NC(=O)Cn2nc(C)c3nn(-c4ccc(Cl)cc4)c(C)c3c2=O)cc1 -7.82%
CCc1nc2nc(C)cc(Nc3cc(C)ccc3C)n2n1 -15.1%
COc1ccc(N2CC(NC(=O)C(c3ccccc3)c3ccccc3)CC2=O)cc1 (configuration not stated) 40.1%
COCCn1ccc2c(OCC(=O)Nc3cccc(C(F)(F)F)c3)cccc2c1=O 4.24%
CCOC(=O)c1c(S(=O)(=O)N2CCC(C(=O)NCc3ccccc3Cl)CC2)c(C)n(C)c1C -14.1%
COc1ccccc1CNC(=O)C1CCN(S(=O)(=O)Cc2ccccc2)CC1 -7.77%
Cc1nc2nc[nH]n2c(=O)c1NS(=O)(=O)c1ccc(Br)cc1 0.748%
CC(c1cc2ccccc2s1)N(O)C(N)=O (configuration not stated) -14.4%
Clc1ccc(CSc2nncn3c2cc2occc23)cc1 -17.5%
CC1=C(c2ccc(Cl)cc2)S(=O)(=O)N=C1N1CCN(c2cc(C)ccc2C)CC1 -5.2%
Cc1cc2[nH]c(=O)c(=O)[nH]c2cc1S(=O)(=O)N1CCN(c2ccccc2F)CC1 -6.38%
COc1ccc2sc(N(Cc3cccnc3)C(=O)CCc3ccccc3)nc2c1 2.5%
COc1cccc(Cn2c(=O)n(Cc3ccccc3)c(=O)c3c2c2cc(OC)ccc2n3C)c1 -4.13%
Cc1cc(C)cc(-n2c(SCC(=O)Nc3ccc4c(c3)OCO4)nc3c([nH]c4ccccc43)c2=O)c1 -1.91%
Cc1cccc(N(C)S(=O)(=O)c2ccc3c(c2)NC(=O)CC(=O)N3)c1 -0.0817%
COc1ccc(CNC(=O)C(=O)NCC(c2cccnc2)N2CCN(c3ccccc3)CC2)cc1 (configuration not stated) 2.81%
O=C(CSc1nc(=O)n(Cc2ccncc2)c2c1CCC2)Nc1cccc(F)c1 -0.75%
CCc1ccc(NC(=O)CNC(=O)Cn2c(C)cc3ccccc3c2=O)cc1 -5.67%
Clc1ccc(-c2cn3cc(Cc4ccccc4)sc3n2)cc1 5.36%
COc1cc(C2CC(=O)c3c([nH]c(C(=O)OC4CCCC4)c3C)C2)cc(OC)c1OC (configuration not stated) 0.71%
CCN(C(=O)Cn1nc(Cc2ccncc2)c2ccccc2c1=O)c1ccc(OC)cc1 1.1%
COC(=O)c1c(NC(=O)c2ccc(C(C)(C)C)cc2)sc2c1CCC(C)C2 (configuration not stated) -1.06%
CC1(C)CC(=O)c2cc(-c3nc(-c4ccc(F)cc4)cs3)c(=O)[nH]c2C1 0.669%
CCN(C(=O)C(NS(=O)(=O)c1ccc(Br)s1)c1ccccc1)c1ccc(C)c(C)c1 (configuration not stated) 3.95%
CCOc1ccc(NC(=O)c2c(NCc3cc(OC)c(OC)cc3OC)sc3c2CCCC3)cc1 -15.7%
COC(=O)c1ccccc1NC(=O)C(Cc1ccccc1)N1Cc2ccccc2C1=O (configuration not stated) 1.94%
CCC(=O)N1c2ccccc2CC1C(=O)NCCN1CCN(c2cc(Cl)ccc2C)CC1 (configuration not stated) 2.3%
COc1cccc(CC(=O)Nc2c(C(=O)N3CCN(c4ccccc4F)CC3)oc3ccccc23)c1 6.28%
COCCCNc1nc2c(c(=O)[nH]c(=O)n2C)n1CC(O)COc1ccc(Cl)cc1 (configuration not stated) -4.48%
Cc1cc(C)c2c(=O)c3c(oc2c1)C(=O)N(CCCOC(C)C)C3c1ccccc1F (configuration not stated) -11.7%
CCCC1=Nc2cc(C(=O)NC3CCCCC3)ccc2Sc2ccc(C)cc21 -7.54%
N#C/C(=C\c1ccc(F)cc1)c1nc(-c2ccc(-c3ccccc3)cc2)cs1 -5.11%
COc1ccc(CCNC(=O)Cn2c(=O)nc(-c3ccccc3)c3cc(Cl)ccc32)cc1OC -6.5%
CC(=O)c1cccc(NC(=O)c2ccc3c(c2)N(Cc2ccc(C)cc2)CCS3)c1 6.74%
COc1ccc(NC(=O)Cn2c(-c3ccc(F)cc3)cc(C(C)=O)c2C)c(OC)c1 -0.409%
CC(=O)Nc1ccc(S(=O)(=O)NCC2CCC(C(=O)NCCc3ccc(C)cc3)CC2)cc1 (configuration not stated) -8.86%
CC(C)c1ccc(NC(=O)N2CCN(c3ccc(Cl)c(Cl)c3)CC2)cc1 -22.7%
Cc1nc2c(-c3ccccc3)c(C)nn2c(C)c1CCC(=O)NCCc1ccccc1 5.93%
O=C(NCc1ccccc1Cl)C1CCCN(C(=O)c2cnn(-c3ccc(F)cc3)c2-n2cccc2)C1 (configuration not stated) 8.3%
O=C(COc1cccc(Cl)c1)N1CCC(c2nc3ccccc3o2)CC1 -6.17%
CCOc1ccc(NC(=O)CSc2nc3c([nH]c4ccccc43)c(=O)n2-c2cc(C)cc(C)c2)cc1 5.73%
Cc1ccc(N2CCN(C(=O)c3c(C)oc4ncnc(N5CCCCC5)c34)CC2)c(C)c1 -2.98%
O=C(NC1CC(=O)N(c2ccc(Cl)cc2)C1)C1CCCC1 (configuration not stated) -7.04%
CCOC(=O)c1c(C)oc2c1cc(NS(=O)(=O)c1ccc(C)cc1)c1ccccc12 -2.51%
O=C(CSc1nc(-c2ccccc2)no1)N1CCN(c2ccccc2)CC1 0.159%
CC(C)(C)OC(=O)N1CCC(c2c(C(=O)NCc3ccccc3)cnn2-c2ccc(F)cc2)CC1 2.2%
CN1CCN(C(=O)c2ccc3c(c2)N(Cc2ccc(F)cc2)C(=O)c2ccccc2S3=O)CC1 (configuration not stated) 3.89%
CCC(=O)N1c2ccccc2C(C)(c2ccccc2)CC1(C)C (configuration not stated) 16.4%
CC1(C)CC(=O)c2cc(-c3nc(-c4ccc(Cl)cc4)cs3)c(=O)[nH]c2C1 -0.474%
CC(C)Oc1ccc(NC(=O)c2cc3ccccc3o2)cc1 -0.819%
COc1ccc(CCNc2oc(COc3cccc(C)c3)nc2C#N)cc1OC -5.74%
Cc1sc2c(c1C)c(=O)n(Cc1ccccc1)c(=O)n2CC(=O)N(C)c1ccccc1 15.7%
Cc1ccc(NC(=O)c2cc(S(=O)(=O)N3CCCCCC3)ccc2F)cc1F 0.875%
CCN1CCc2c(sc(-n3cccc3)c2C(C)NC(=O)Nc2cc(Cl)c(OC)cc2OC)C1 (configuration not stated) 0.563%
CC(=O)N1CCc2cc(Br)cc(S(=O)(=O)NCCc3ccc(Cl)cc3)c21 1.01%
CC(=O)c1cccc(NC(=O)CCc2nc3cccnc3n2Cc2cccs2)c1 3.09%
CC1CCN(S(=O)(=O)c2ccc3c(ccc(=O)n3CC(=O)NCc3ccc(Cl)cc3)c2)CC1 17.8%
COc1ccc(-c2nc(Cn3c(=O)cc(-c4ccccc4)c4c(C)nn(C)c43)c(C)o2)cc1OC -6.75%
CC(C)Oc1ccc(CNC(=O)c2ccc3nc(C(C)C)oc3c2)cc1 -9.36%
CN(C)c1ccc(C(=O)Nc2c(C(=O)NC(C)(C)C)oc3ccccc23)cc1 -14.9%
Cc1cc(C)cc(NC(=O)C(CC(C)C)NC(=O)C2CCCCC2)c1 (configuration not stated) 3.17%
CCn1c(C(=O)N2CCC(C(=O)N3CCN(c4ccc(OC)cc4)CC3)CC2)cc2sccc21 12.6%
CCNc1nc(NC(C)(C)C)nc(Oc2ccc(=O)n(-c3ccccc3)n2)n1 4.74%
CCc1ccccc1N1CC(c2nc3ccccc3n2CCOc2ccc(Cl)c(C)c2)CC1=O (configuration not stated) -28.4%
CCOC(=O)CSc1nc(-c2ccc(F)cc2)cc(C(F)(F)F)c1C#N -1.93%
COc1ccc(CCNc2nc3ccc(C)cc3n3cnnc23)cc1OC 2.55%
O=C(c1cccn1-c1nnc(N2CCCCC2)s1)N1CCN(c2ccc(Cl)cc2)CC1 -2.75%
CC(=O)c1c(C)n(-c2ccc(Cl)cc2)c2ccc(OC(=O)COc3ccccc3)cc12 1.57%
CC(=O)c1cccc(NC(=O)c2ccc(Cl)c(S(=O)(=O)N3CCOCC3)c2)c1 -4.99%
CC(C)(C)C1CCc2c(sc(NC(=O)c3ccccc3F)c2C(=O)NCc2ccco2)C1 (configuration not stated) -15.3%
Cc1cc(C)cc(C(=O)Nc2cccc(-c3nc4ncccc4o3)c2C)c1 4.44%
O=C(NCCn1cc(SCc2ccccc2)c2ccccc21)c1cccs1 -16.1%
CCc1nn2c(=O)cc(COC(=O)c3ccc4c(c3)OCO4)nc2s1 27.9%
Cc1nn(-c2ccc(N3CCCC3)nn2)c(C)c1CCC(=O)NCc1ccccc1 -2.02%
COc1ccc(C2=NS(=O)(=O)N(C)C(C(=O)Nc3ccc(OC(F)(F)F)cc3)=C2)cc1 2.88%
CCOC(=O)c1cc2c(=O)n3ccccc3nc2n(CCOC)c1=NC(=O)c1cc2ccccc2o1 0.209%
c1ccc(N2CCN(Cc3nnc(-c4ccc5c(c4)OCO5)o3)CC2)cc1 -17.2%
COc1ccc(CNc2ncnc3c2cnn3-c2ccc(Cl)cc2)cc1 -2.45%
CCOC(=O)c1c(C)oc2nc(C)nc(NCC3CCN(Cc4ccc(F)cc4)CC3)c12 -7.12%

outcome, inactive:
Cc1ccc(Nc2ncnc3c2nc2n3CCCC2)cc1F
CCCN1CCCc2cc(CN(CCCN3CCOCC3)C(=O)Nc3ccc(Cl)c(Cl)c3)ccc21
CCOc1ccc(CCNC(=O)c2ccc(CSCc3ccccc3C)o2)cc1OCC
CCOC(=O)c1c(NC(=O)COc2ccccc2)sc(C(C)=O)c1C
Cc1cc(C)cc(OCC(=O)N2CCC(c3nc4ccccc4o3)CC2)c1
COc1ccc(C)cc1NC(=O)Cn1cc(S(=O)(=O)N2CCC(C)CC2)c2ccccc2c1=O
O=S(=O)(c1ccccc1)n1nc(-c2ccc(Cl)cc2)nc1NCc1ccccc1
Cc1cccc(N2CCN(C(=O)c3cnc4c(C)cccn4c3=O)CC2C)c1 (configuration not stated)
CCC(C)NC(=O)c1ccc2c(c1)nc1n2CCCCC1 (configuration not stated)
COc1ccc(NC(=O)CSc2nc3c(oc4ccccc43)c(=O)n2-c2ccccc2)cc1OC
CCOc1ccccc1NC(=O)c1cc(S(=O)(=O)N2CCOCC2)cn1C
CCCNC(=O)c1cnn2c(C(F)F)cc(-c3ccccc3)nc12
COc1ccc(Cl)cc1N=C1NC(=O)CC(C(=O)Nc2ccccc2C(F)(F)F)S1 (configuration not stated)
COc1ccc(S(=O)(=O)N(CC(=O)Nc2cc(C)cc(C)c2)c2ccc(Cl)cc2)cc1
COc1ccccc1CNC(=O)CCCCn1c(=O)c2ccccc2n(Cc2ccccc2C)c1=O
CCCc1cc(=O)[nH]c(Nc2ccccc2O)n1
COc1ccc(-c2nc3scc(CCNS(=O)(=O)c4c(C)cc(C)cc4C)n3n2)cc1OC
CN(Cc1ccccc1)S(=O)(=O)c1nnc(NC(=O)c2ccccc2Cl)s1
